Test results: the supplement of paper PMC3334620
Whole data set: some 33,000 sequences, median “E-score (-0.5 to 0.5)” near -0.016, cut for the highest 2% near 0.31. This is one part of the list.

biological target: Cst6 (UniProt P40535); assay: PBM E-score (8-mer binding enrichment) (E-score (-0.5 to 0.5)); higher = stronger / more preferred TF binding; most listed sequences are background and not binding sites; conditions: protein concentration: 200 nM; construct: GST-DNA-binding domain
Method in brief: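 GST-tagged yeast TFs (full-length or DNA-binding domain) were made by PURExpress in vitro transcription/translation and applied at about 100-200 nM to universal all-10-mer Agilent arrays. The arrays were made double-stranded by primer extension, on fresh or once-stripped slides. Bound protein was detected with fluorescent anti-GST, and scans were normalised with masliner. Each ungapped eight-base word, pooled with its reverse complement, received an E-score (modified Wilcoxon-Mann-Whitney statistic) from the Universal PBM Analysis Suite.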

Sequence | PBM E-score
CAGATGCC | -0.139
CCATTCAG | 0.134
GACGGGGA | -0.233
CGCGGGCC | -0.0146
CGTGGAAC | -0.0795
ATTGTGGA | 0.0779
ACGTGAAC | -0.00098
CATGGTAC | -0.108
GGATGGGA | -0.197
AGGTCCTA | -0.261
GCTTGGTA | -0.0538
CACTTCTA | 0.0156
CTGATCAC | -0.0556
AAGAACGA | 0.0922
CATCGGGG | -0.311
AAAGGCTG | -0.166
CGCACTTA | 0.1
TCGGTACA | 0.00999
ACGTCAGG | 0.413
AAAAGCCA | 0.182
CCCGCAGG | -0.293
TAGTACAA | -0.00017
CCCGTGAG | -0.0936
CTTTATTC | 0.0295
CCCTGGCC | -0.249

Sequence | PBM E-score
GCCACCGC | -0.126
ATCGGTTA | 0.0811
GAAGAAAA | 0.0816
ACCCGTGC | -0.0192
CAAGATTG | 0.0515
CCTGCAGG | -0.133
CATAGTCA | -0.0726
AGAAGAGG | -0.0166
ATAACTAC | 0.193
CACCCCTC | -0.0461
CGAGTCTC | -0.416
CGACCTAA | 0.11
GTTTATAA | 0.208
GCTACGTA | 0.213
ACTTGCAT | 0.134
ATTGCAGC | -0.0128
ACAGCGGG | -0.0301
CCCATACA | -0.0517
ACCTAAAC | 0.143
ATGCCTGG | -0.25
AGAAACCA | 0.0936
GGGGAAAA | -0.101
ATCCTAGC | -0.00153
GTTCTACA | -0.0742
CGGCTGCA | -0.154

Sequence | PBM E-score
CATAGGAC | -0.146
CAGAACGA | 0.0019
AGATCGCC | 0.00791
GAGCCTAA | -0.0425
ATAATTCA | 0.253
GAAGGCGC | -0.0358
CGTTAACG | -0.103
CAAGAACC | 0.187
TGCCGTAA | 0.238
TCTGACAA | 0.0678
CCGTTCCA | 0.0312
CGCAACTA | 0.0678
AGCTATTA | 0.0826
CACTATGG | -0.237
CTTTACGC | 0.196
CAATCCAG | 0.00496
AGCGTCAT | 0.423
CAAAGCGG | 0.0493
AGAGTGTG | -0.129
ACAGTTAG | -0.0051
ACACATAG | 0.0732
GACTCGTA | -0.126
AATTTAGC | 0.228
CACTACAA | 0.281
ACGCGACG | 0.0129

Sequence | PBM E-score
AAAGTTCT | -0.0864
ACGGCGAT | 0.3
ACATAAGT | 0.139
GATTAAGC | -0.0145
AAACTTCA | 0.186
CTCCCCGA | -0.212
CAAATCTG | 0.0139
ATCGAGAT | 0.00125
GCACTCCC | -0.123
CGCCTTGA | -0.0316
TCGGTCAA | -0.0181
CGTCGCTA | 0.145
AAAGACCG | -0.159
GAAACTGA | 0.0115
CCGACCTA | 0.0414
ATGAGTAA | 0.0389
AGAAAGTG | -0.123
ATTGCATC | 0.232
CTTTTCCC | 0.0307
AAAGTAAA | 0.138
CGGTGAAA | 0.0801
AAGAAGAT | 0.0293
GGGGCACC | -0.117
ATACAATG | 0.169
AATGGGAA | -0.133

Sequence | PBM E-score
AACATGGC | 0.0119
GAAAAAGC | 0.097
ACGAAAAG | 0.106
CAACTGAC | 0.0886
GCTCCACA | -0.169
GCAATAGA | 0.0115
AACACGTT | 0.0953
CTCCTTTA | -0.251
ATGCTATA | -0.0582
AAGAAATA | 0.226
ATCACAAC | 0.218
TCTGCAAA | 0.0063
AGCGCCGA | 0.00204
AGAGCCTA | -0.00715
GTACATAC | 0.0163
ATCAGAAA | 0.11
AACGCCCC | -0.0981
ATTCTCAG | 0.0691
AATAGGGC | -0.1
ACTTTCAT | 0.0339
CAGGTGGA | -0.219
TGTAACAA | 0.146
CGTCTGAC | 0.166
CTAGTGAG | 0.118
CTTAACTA | 0.174

Sequence | PBM E-score
ATCTTAAG | 0.0791
GAGCCCCC | -0.261
CCTTGCTA | 0.0372
CAAGCGGA | -0.277
ACGGCTCT | 0.174
ATCCCCGA | -0.251
CAATAAGA | 0.181
ATACTTCA | 0.0785
ATCTTAAA | 0.0934
ATTTGCTG | 0.134
TCGCCAAA | -0.103
CCTCATTA | 0.174
AATATCAC | 0.223
CAGCGACC | -0.133
AAGTCAAC | 0.03
AGTTCTCG | 0.064
AAAGGCAT | 0.132
AGCTGAGC | -0.177
CTGCGATC | -0.131
GGAGGCGA | -0.154
AATCCTTG | -0.00761
CGGTGATC | -0.0129
TGAACGCA | 0.149
AATCTTCG | 0.107
AGCCGACA | -0.162

Sequence | PBM E-score
CTATCTCC | -0.127
AGCGACAC | -0.0539
AACTGTCG | -0.021
AATCCTCC | -0.247
ACGGCTGA | -0.0107
CCTTCTTC | -0.206
AATCCCAC | -0.204
GCTCCAGA | -0.254
CCCCAGCC | -0.331
CGTCGCCC | -0.0868
ATGTGGGC | -0.068
CATTACGC | 0.219
CGATAGGA | -0.174
ACGGACGG | -0.0663
CACAGCTA | -0.217
AAGCGATG | -0.134
GGAGATTA | 0.13
TGGGCCAA | -0.213
GAAAACAA | 0.18
CAGGTGGG | -0.214
CAAGATAC | 0.0316
ATAAGCAT | -0.023
ATGTATAA | 0.11
ATGGAAGA | -0.0561
GTGGGTTA | -0.0365

Sequence | PBM E-score
CATAATAC | 0.224
CAGATATG | 9e-05
ATTCTAGC | -0.114
TCAAAGAA | 0.0267
GCCATGCC | -0.0464
GCATTGGA | -0.00245
GAAGGGTA | -0.0857
ATACTAAT | 0.0826
AAAGTTGA | 0.0474
CCTCTACA | -0.208
ATGTTTGG | 0.152
AAGCGCCG | 0.305
CCAACAAC | -0.0167
GATCTTGA | 0.0199
GGACGAAA | 0.0732
TAAAAGCA | 0.0288
AGAATAAT | 0.159
TCTTGGAA | 0.0581
AGGCCACC | -0.191
AGGCTCAC | -0.262
CTTCGGAA | 0.023
GACCCCCC | -0.384
ATACTTCG | 0.0898
AGCATTTC | 0.0706
CACTTAAA | 0.0639

Sequence | PBM E-score
AATCAATG | 0.272
GGTGCTAA | -0.0433
GTGTGAGA | 0.0223
AATCTACG | -0.0584
CACAACTA | 0.202
ATGGTTGA | 0.0658
ACGGCCAC | 0.00593
CGCGTGGC | -0.109
AATTCAGG | 0.0738
CTCACAAA | 0.102
CAGTGTAC | -0.0854
TAACAATA | 0.203
CGGTTGCC | -0.0342
CGGAATAG | 0.0728
TATCTTCA | 0.0579
GAGAGAAC | -0.0626
ACTGGAAT | 0.0324
CGCAGGGC | 0.00825
AATGTTAG | 0.022
